The record followed here is the RNAGym collection of RNA variant scans (doi:10.7554/elife.90254).

The chains are these.
B1: LINE1-mini (parent)
chain: GGCAGAGCUCAACACAGCGUGGCAAAGUGGCUGUGGCUAGACUGCC

The source gives no read counts; variants with many changes may rest on few reads.

The variants in this data set derive from B1. The data set can be described thus: self-cleavage, relative activity (ratio to wild type); higher = more cleavage; in vitro, sequencing; the parent is a self-cleaving ribozyme.
As to GGCGGAGCUCAACACAGCGUGGCAAAGUGGCUGUGGCUCUACUGCC [A4G A39C G40U], the self-cleavage was 0.02.

Consider GACACAGCGCAACACAGCGUGGCAUAGUGGCUGUGGCUAGACUGCC [G2A G5C U9G A25U], for which the self-cleavage amounted to 0.09.

As to GGCAGAGCUCAACACAGCGAGGCAAGGUGGCUGUGGCUAGACUACC [U20A A26G G44A], the self-cleavage was found to be 0.5.

GGCAGAGCUCAAAACAGCGUUGCAAAGUGGCUGUGGCUAGACUACC [C13A G21U G44A]: the self-cleavage came out at 0.03.

GGCAGAGCUCAAGACAGCGUGGCAAAGUGGCUGUGGCUUGAGUGCC [C13G A39U C42G]: the self-cleavage stood at 0.03.

In the case of GGCAGAGUUCAACACAGCGUAUCAAAGUGGCUGUGGCUAGACUGCC [C8U G21A G22U], the self-cleavage was found to be 0.19.

Regarding GGAAGAGCUCAACACAGGCUGGCAACGUGGCUGUGGCUAGACUGCC [C3A C18G G19C A26C], the self-cleavage was 0.39.

As to GGCAGAGCUCAACACACCGUGGCAAAGUAGCUGUGUUUAGACUGCC [G17C G29A G36U C37U], the self-cleavage was determined as 0.05.

Consider GGCAGAGCUCAACACAGAGUGGCAAAGGGGCUGUGGCUAGACUGUC [C18A U28G C45U], for which the self-cleavage is 0.06.

In the case of GGCAGAGCGCAGCACAGCCUGACAAAGUGGCUGUGGCUAGACUGCC [U9G A12G G19C G22A], the self-cleavage was determined as 0.03.

Turning to GGCAGAGCUCAACACAGCGUGGCAAAGUGGCUGUGGCGAGUCUGCU [U38G A41U C46U], the self-cleavage worked out at 0.04.

For the variant GGUAGAGCUCAACACAGAGUGGCAAAGUGGCUGUGGCUAGAAUGCC [C3U C18A C42A], the self-cleavage is 0.02.

Consider GGCAGCGCUCAACGCAGCGUGGCAAAGUGGCUGUGGCUAGAUUGCC [A6C A14G C42U], for which the self-cleavage was determined as 0.04.

Consider GGCAGAGCUCAACACACCGUAGCACAGUGGGUGAGGCUAGACUGCC [G17C G21A A25C C31G U34A], for which the self-cleavage is 0.04.

GGCAGAGCUCAACACAGCGUGGCGUAGUGGCUGUGGCUAGACUGCU [A24G A25U C46U]: the self-cleavage was determined as 0.77.

As for GGCAGAGAUAAACACCGCGUGGCAAAGUGGCUGUGGCUAGACUGCC [C8A C10A A16C], the self-cleavage stood at 0.02.

For GGAAGAGCUCAACACAGCGUGGCAAAGUGGCUGUGGUUAAACUGCC [C3A C37U G40A], the self-cleavage was 0.39.

GGCAGAGCUCAACACAGCGCAGCAAAGUGCCUGUGGCUAGACUGCC [U20C G21A G30C]: the self-cleavage was found to be 2.11.

For the variant GGCAGAGCUCAACACAGCGUGGCAAAGUGGCUGUGGCGAGCCUACA [U38G A41C G44A C46A], the self-cleavage worked out at 0.04.

For GGCUGAGCUUAACACAGCGUGGCAAAGUGGCUGUCGCUAGACUGAC [A4U C10U G35C C45A], the self-cleavage came out at 0.02.

GGAAGCCCUCAACACAGCGUGGCAACGUGGGUGUGGCUAGACUGCC [C3A A6C G7C A26C C31G]: the self-cleavage stood at 0.2.

As for GGCAGCGCUCAACACAGCGUGGCAAAGAGGCUGUGGCUUGACUGCC [A6C U28A A39U], the self-cleavage stood at 0.08.

In the case of GGAAGAGCUCAACACAGCGUGGCAAAGUGGCUGCGGAUAAACUGCC [C3A U34C C37A G40A], the self-cleavage came out at 0.09.

In the case of GGCAGAGCUCAAUACAGCGGGGCAAAGUGGCUGUGGCUAGACUGCA [C13U U20G C46A], the self-cleavage was 0.04.

Take GGCAGAGCUCAACAGAGCGUGGCAAAUUGGCUUUGGCUAGACUGAA [C15G G27U G33U C45A C46A]: the self-cleavage worked out at 0.01.

Take AGCAGAGCUCAACACAGCGUGGCAAAUUGGCUUUGGCUAGAUUGCC [G1A G27U G33U C42U]: the self-cleavage was determined as 0.04.

Take GGCAGAGCUCAACAAACCGGGGCAAAGUGGCUGCGGCUAGACUGCC [C15A G17C U20G U34C]: the self-cleavage stood at 0.04.

For the variant GGCAGAGCUCAACACAGCGGGGCAAUGUGGCUGUGUCUAGACUGCC [U20G A26U G36U], the self-cleavage is 0.05.

As to GGCAGAGCUCAACACAGCGUAGCAAAGUGGCAGUGGGUAGACUGCC [G21A U32A C37G], the self-cleavage amounted to 0.03.

On to GGCAGAGCUCAUCACAGCGUUGGAAAGUGGGUGUGGCUAGACUGCC [A12U G21U C23G C31G], for which the self-cleavage amounted to 0.03.

Regarding GGCAGAGCUGAACACAGUGUGGCAAAGUGGCUGUGACUAGACUGCC [C10G C18U G36A], the self-cleavage amounted to 0.02.

GGCCGAGCUAAACACAGCGUGGCAAAGUCGUUGUGGCUAGACAGCC [A4C C10A G29C C31U U43A]: the self-cleavage came out at 0.

In the case of GGCUGAGCUCAACACAGCGUGGCAAAGUGGCUGUGGCUAGCGUGCC [A4U A41C C42G], the self-cleavage came out at 0.

Turning to GGCAGAGCUCAACACAGCGUGGCAAAAUGGCUUUGACUAGAUUGCC [G27A G33U G36A C42U], the self-cleavage was 0.08.

GGCAGAGCCCAACACCGCGUGGCAAAGUGGCAGUGGCUAGACUGCC [U9C A16C U32A]: the self-cleavage worked out at 0.01.

Consider GGCAGAGCUCAACGCAGCGUGGCAAAGUGGCUCUAGCUAGACUGCC [A14G G33C G35A], for which the self-cleavage was determined as 0.03.

As for GGCAGAGCUCAACAUAGCGUGGCAAAGAACCUGUGCCUAGACUGCC [C15U U28A G29A G30C G36C], the self-cleavage was found to be 0.04.

As for GGCUGAGCUCAACACUGCUUGGCAAAGUGGCUGUGGCUAGUCUCCC [A4U A16U G19U A41U G44C], the self-cleavage amounted to 0.01.

GGCAGAGCUCAACACAGCGUGGCACAGUGGCUGUGGCUAAAAUGCC [A25C G40A C42A]: the self-cleavage was 0.34.

For the variant GGCAGAGCUCAACACAGUAUGGCAAAGUGGCUGUGGGUAGACUGCC [C18U G19A C37G], the self-cleavage was found to be 0.05.

On to GGCAGAGCUCAACACAGCGUGGUAAAAUGGCAGUGGAUAGACUGCC [C23U G27A U32A C37A], for which the self-cleavage was 0.02.

GGCAGAGCCCUGCACAGCCCGGCAAAGUGGCUGUGGCCAGACCGCC [U9C A11U A12G G19C U20C U38C U43C]: the self-cleavage is 0.01.

For GGUGGAGGUCAUCACAUCGUGGCAAAGUGUCUGUGGCUAGACUGCC [C3U A4G C8G A12U G17U G30U], the self-cleavage was found to be 0.07.

On to GGCAGAGCUCAACACAGAGUGGAACAGUGCCUGUGGCUAGAGUGCC [C18A C23A A25C G30C C42G], for which the self-cleavage was determined as 0.45.

In the case of GGACGAGCUCAACACAGCGUGGCAAAGUGGCUGUGGCUACACUGCC [C3A A4C G40C], the self-cleavage amounted to 0.01.

Take GGCAAAGCUCAACACAGCGUGGCUAAGUGGCUGUGGUUAGACUGCC [G5A A24U C37U]: the self-cleavage was 0.04.

GGCCGAGCUCAACACAGCGUGGAAAAGUGGCUGUGUCUAGACUACC [A4C C23A G36U G44A]: the self-cleavage was found to be 0.14.

For GUCAGAGCUCAACACAGCGUAGCAAAGUGGCUUUGGCUAGACUGCC [G2U G21A G33U], the self-cleavage was 0.07.

Turning to CGAAGAAUUCAACACAGCGUGGCAAAAUGGCUGUGGCUAGACUGCC [G1C C3A G7A C8U G27A], the self-cleavage was 0.22.

For the variant GGCAUAGCUCAACAGAGCGUUGCAAAGUGGCUGUGACUAGACUGCC [G5U C15G G21U G36A], the self-cleavage was 0.01.

With GGUAGAGCUCAAGACAGCGUGGCUAAGUCGGUGUGGCUAUACUGAC [C3U C13G A24U G29C C31G G40U C45A], the self-cleavage stood at 0.01.

For the variant GGCAGAGCUCAACACAGUGUGGCAAAUUGGCUGGGGCUAGACUGCC [C18U G27U U34G], the self-cleavage came out at 0.1.

As to AGCAGAGCUCAACAGAGCGUCGCAAAGUGGCUGUGGCUAGAUUGCC [G1A C15G G21C C42U], the self-cleavage was 0.03.

Take GGCAGAGCUCAACCCAGCGUGGCACAAUGGCUGUGGCUAGACUGCC [A14C A25C G27A]: the self-cleavage stood at 0.07.

As for GGCAGGCCUCAACACAGCGUGGGAAAGUGGCAGUGGCUAGACUGCC [A6G G7C C23G U32A], the self-cleavage turned out to be 0.08.

Consider GGCAGAGAUCAACACAGCGUUGCAAAGUGGUUGUGGCUAGACUGCC [C8A G21U C31U], for which the self-cleavage is 0.09.
